Consider one molecule from the supplement of paper PMC8728848.

What all share (assay): glycan array binding signal (z-score within array); higher = stronger binding
Common to all, as to details: glycan notation: IUPAC condensed, linker removed

Assay [1] concerns the target Gal(b1-4)GlcNAc(b1-3)Gal(b1-4)Glc. The method in brief: (§1)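 From the Consortium for Functional Glycomics database, 3228 arrays were curated, keeping only those whose protein sequence was available. Binding is given as a within-array Z-score averaged across arrays sharing a protein sequence and across linkers. Negative Z-scores can be read as non-binding.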
The target of assay [2] is Gal(b1-4)GlcNAc(b1-3)Gal(b1-4)GlcNAc. In short, it runs like this: as §1
For assay [3], the target named is Gal(b1-4)GlcNAc(b1-3)Gal(b1-4)GlcNAc(b1-2)Man(a1-3)[Gal(b1-4)GlcNAc(b1-3)Gal(b1-4)GlcNAc(b1-2)Man(a1-6)]Man(b1-4)GlcNAc(b1-4)GlcNAc. In short, it runs like this: as §1
In assay [4] the target is Gal(b1-4)GlcNAc(b1-3)Gal(b1-4)GlcNAc(b1-2)Man(a1-3)[Gal(b1-4)GlcNAc(b1-3)Gal(b1-4)GlcNAc(b1-2)Man(a1-6)]Man(b1-4)GlcNAc(b1-4)[Fuc(a1-6)]GlcNAc. The method in brief: as §1
Assay [5] concerns the target Gal(b1-4)GlcNAc(b1-3)Gal(b1-4)GlcNAc(b1-2)[Gal(b1-4)GlcNAc(b1-3)Gal(b1-4)GlcNAc(b1-6)]Man(a1-6)[Gal(b1-4)GlcNAc(b1-3)Gal(b1-4)GlcNAc(b1-2)Man(a1-3)]Man(b1-4)GlcNAc(b1-4)GlcNAc. In short, it runs like this: as §1
In assay [6] the target is Gal(b1-4)GlcNAc(b1-3)Gal(b1-4)GlcNAc(b1-2)[Gal(b1-4)GlcNAc(b1-3)Gal(b1-4)GlcNAc(b1-6)]Man(a1-6)[Gal(b1-4)GlcNAc(b1-3)Gal(b1-4)GlcNAc(b1-2)Man(a1-3)]Man(b1-4)GlcNAc(b1-4)[Fuc(a1-6)]GlcNAc. In short, it runs like this:
as §1

Assay [7] has as its target Gal(b1-4)GlcNAc(b1-3)Gal(b1-4)GlcNAc(b1-3)Gal(b1-4)GlcNAc. The method in brief:
as §1

Assay [8] deals with Gal(b1-4)GlcNAc(b1-3)Gal(b1-4)GlcNAc(b1-3)Gal(b1-4)GlcNAc(b1-2)Man(a1-3)[Gal(b1-4)GlcNAc(b1-3)Gal(b1-4)GlcNAc(b1-3)Gal(b1-4)GlcNAc(b1-2)Man(a1-6)]Man(b1-4)GlcNAc(b1-4)GlcNAc. In short, it runs like this:
as §1

In assay [9] the target is Gal(b1-4)GlcNAc(b1-3)Gal(b1-4)GlcNAc(b1-3)Gal(b1-4)GlcNAc(b1-2)Man(a1-3)[Gal(b1-4)GlcNAc(b1-3)Gal(b1-4)GlcNAc(b1-3)Gal(b1-4)GlcNAc(b1-2)Man(a1-6)]Man(b1-4)GlcNAc(b1-4)[Fuc(a1-6)]GlcNAc. In short, it runs like this:
as §1

Assay [10] has as its target Gal(b1-4)GlcNAc(b1-3)Gal(b1-4)GlcNAc(b1-3)Gal(b1-4)GlcNAc(b1-2)[Gal(b1-4)GlcNAc(b1-3)Gal(b1-4)GlcNAc(b1-3)Gal(b1-4)GlcNAc(b1-6)]Man(a1-6)[Gal(b1-4)GlcNAc(b1-3)Gal(b1-4)GlcNAc(b1-3)Gal(b1-4)GlcNAc(b1-2)Man(a1-3)]Man(b1-4)GlcNAc(b1-4)[Fuc(a1-6)]GlcNAc. In short, it runs like this: as §1
Assay [11] has as its target Gal(b1-4)GlcNAc(b1-3)Gal(b1-4)GlcNAc(b1-3)Gal(b1-4)GlcNAc(b1-3)Gal(b1-4)GlcNAc(b1-2)Man(a1-3)[Gal(b1-4)GlcNAc(b1-3)Gal(b1-4)GlcNAc(b1-3)Gal(b1-4)GlcNAc(b1-3)Gal(b1-4)GlcNAc(b1-2)Man(a1-6)]Man(b1-4)GlcNAc(b1-4)GlcNAc. The method in brief: as §1
The target of assay [12] is Gal(b1-4)GlcNAc(b1-3)Gal(b1-4)GlcNAc(b1-3)Gal(b1-4)GlcNAc(b1-3)Gal(b1-4)GlcNAc(b1-2)Man(a1-3)[Gal(b1-4)GlcNAc(b1-3)Gal(b1-4)GlcNAc(b1-3)Gal(b1-4)GlcNAc(b1-3)Gal(b1-4)GlcNAc(b1-2)Man(a1-6)]Man(b1-4)GlcNAc(b1-4)[Fuc(a1-6)]GlcNAc. The method in brief:
as §1

In assay [13] the target is Gal(b1-4)GlcNAc(b1-3)Gal(b1-4)GlcNAc(b1-3)Gal(b1-4)GlcNAc(b1-3)Gal(b1-4)GlcNAc(b1-2)[Gal(b1-4)GlcNAc(b1-3)Gal(b1-4)GlcNAc(b1-3)Gal(b1-4)GlcNAc(b1-3)Gal(b1-4)GlcNAc(b1-6)]Man(a1-6)[Gal(b1-4)GlcNAc(b1-3)Gal(b1-4)GlcNAc(b1-3)Gal(b1-4)GlcNAc(b1-3)Gal(b1-4)GlcNAc(b1-2)Man(a1-3)]Man(b1-4)GlcNAc(b1-4)[Fuc(a1-6)]GlcNAc. In short, it runs like this: as §1
Assay [14] deals with Gal(b1-4)GlcNAc(b1-3)Gal(b1-4)GlcNAc(b1-3)Gal(b1-4)GlcNAc(b1-3)Gal(b1-4)GlcNAc(b1-3)Gal(b1-4)GlcNAc(b1-2)Man(a1-3)[Gal(b1-4)GlcNAc(b1-3)Gal(b1-4)GlcNAc(b1-3)Gal(b1-4)GlcNAc(b1-3)Gal(b1-4)GlcNAc(b1-3)Gal(b1-4)GlcNAc(b1-2)Man(a1-6)]Man(b1-4)GlcNAc(b1-4)GlcNAc. The method in brief: as §1
Assay [15] concerns the target Gal(b1-4)GlcNAc(b1-3)Gal(b1-4)GlcNAc(b1-3)Gal(b1-4)GlcNAc(b1-3)Gal(b1-4)GlcNAc(b1-3)Gal(b1-4)GlcNAc(b1-2)Man(a1-3)[Gal(b1-4)GlcNAc(b1-3)Gal(b1-4)GlcNAc(b1-3)Gal(b1-4)GlcNAc(b1-3)Gal(b1-4)GlcNAc(b1-3)Gal(b1-4)GlcNAc(b1-2)Man(a1-6)]Man(b1-4)GlcNAc(b1-4)[Fuc(a1-6)]GlcNAc. The method in brief: as §1
Assay [16] concerns the target Gal(b1-4)GlcNAc(b1-3)Gal(b1-4)GlcNAc(b1-3)Gal(b1-4)GlcNAc(b1-3)Gal(b1-4)GlcNAc(b1-3)Gal(b1-4)GlcNAc(b1-2)[Gal(b1-4)GlcNAc(b1-3)Gal(b1-4)GlcNAc(b1-3)Gal(b1-4)GlcNAc(b1-3)Gal(b1-4)GlcNAc(b1-3)Gal(b1-4)GlcNAc(b1-6)]Man(a1-6)[Gal(b1-4)GlcNAc(b1-3)Gal(b1-4)GlcNAc(b1-3)Gal(b1-4)GlcNAc(b1-3)Gal(b1-4)GlcNAc(b1-3)Gal(b1-4)GlcNAc(b1-2)Man(a1-3)]Man(b1-4)GlcNAc(b1-4)[Fuc(a1-6)]GlcNAc. In short, it runs like this:
as §1

Assay [17] has as its target Gal(b1-4)GlcNAc(b1-3)Gal(b1-4)GlcNAc(b1-3)Gal(b1-4)GlcNAc(b1-3)Gal(b1-4)GlcNAc(b1-3)Gal(b1-4)GlcNAc(b1-3)Gal(b1-4)GlcNAc(b1-2)Man(a1-3)[Gal(b1-4)GlcNAc(b1-3)Gal(b1-4)GlcNAc(b1-3)Gal(b1-4)GlcNAc(b1-3)Gal(b1-4)GlcNAc(b1-3)Gal(b1-4)GlcNAc(b1-3)Gal(b1-4)GlcNAc(b1-2)Man(a1-6)]Man(b1-4)GlcNAc(b1-4)GlcNAc. The method in brief: as §1
In assay [18] the target is Gal(b1-4)GlcNAc(b1-3)Gal(b1-4)GlcNAc(b1-3)GalNAc. In short, it runs like this: as §1
Assay [19] concerns the target Gal(b1-4)GlcNAc(b1-3)Gal(b1-4)GlcNAc(b1-3)[Gal(b1-4)GlcNAc(b1-3)Gal(b1-4)GlcNAc(b1-6)]GalNAc. The method in brief: as §1

This is one part of the list.

B1: Tamarinin (protein)
chain: CDDSARAGNIVVYWGQGGSDNSEGSLKEACKSGHYNMIVLQQLIVYDDGRDPDLNLGAHCSDCTKLEEQIKYCQNKDIKILLQIGQVVPTQEDVKDVTKNLSEYLLKNFFSGKSGPLGEVYLNGIDIASVPEGNNLKFDELVEALNDSSTERRIYLSASPLCVYPDYYLNKAIQTEKLDFLFVQFFYQNPCIYTEGNPENLFEAMKTWTKNVPESMIFMALPATPNLDGYIPPRVLNKEILPAVSEASNFAGVMIFDRYFDRFRKYSSKIK
As to B1, the “glycan array binding signal (z-score)” value in [1] was 0.79; in assay [2] it was -0.417; in assay [3], 0.588; in assay [4], -0.145; in assay [5], -0.302; in assay [6], -0.083. Moreover, the “glycan array binding signal (z-score)” value in assay [7] is -0.433; in assay [8], 0.249; in [9], -0.2; in assay [10], -0.11; in [11], -0.35; in [12] it was -0.247. Also, the “glycan array binding signal (z-score)” value was -0.229 in assay [13]; -0.24 in [14]; -0.397 in [15]; -0.254 in [16]; -0.35 in assay [17]; -0.296 in [18]. For the same molecule, the “glycan array binding signal (z-score)” value in assay [19] is -0.115.
